Here are results for 39 compounds from the supplement of paper PMC9446081.

About 220 (0.56%) of roughly 39,000 compounds showed activity. The list shows a part of the results.
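Further: static incubation at 37 °C against the wild-type strain, values averaged over two biological replicates.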

The experiment concerns Escherichia coli K-12 BW25113. Put plainly: relative growth (OD600 normalised to plate interquartile mean) (fraction); higher = less growth inhibition, active = 0.2 or less. The settings on record: 50 µM; LB; incubation time: overnight (16-24 h).
With `CC(=O)[C@@]12O[C@]3(COC[C@H](c4ccccc4)N3C1=O)[C@@H]1C(=O)N(C)C(=O)[C@@H]12`, the relative growth is inactive: 0.964.

As for `COc1ccc(S(=O)(=O)N(C)C[C@@H]2Oc3c(NC(=O)Nc4cccc5ccccc45)cccc3C(=O)N([C@@H](C)CO)C[C@H]2C)cc1F`, the relative growth is inactive: 0.985.

Turning to `COc1ccc(S(=O)(=O)N(C)C[C@@H]2Oc3ncc(C#CCN(C)C)cc3C(=O)N([C@H](C)CO)C[C@@H]2C)cc1`, the relative growth is inactive: 0.984.

For `C=CCOC(=O)[C@@H]1[C@H]2C(=O)O[C@H](c3ccccc3)[C@H](c3ccccc3)N2[C@H](c2ccc(OCCOC(=O)[C@@H]3C[C@@H]4C(=O)N[C@@H](CC(C)C)C(=O)N4[C@@H]3c3ccc(O)cc3)cc2)[C@@]12C(=O)Nc1ccc(I)cc12`, the relative growth is inactive: 1.03.

Take `COC1C(C(=O)O)OC(C)C(O)C1O.COC1OC(C(=O)O)C(O)C(O)C1O` (centres undefined) ["ALGINIC ACID [Mol Wt ~200,000; monomers shown]"]: the relative growth was inactive: 0.862.

Take `C[C@@H]1CCCCO[C@H](CN(C)C(=O)Nc2ccc3c(c2)OCO3)[C@@H](C)CN([C@@H](C)CO)C(=O)c2cc(NC(=O)C3CCCCC3)ccc2O1`: the relative growth is inactive: 1.03.

Regarding `C[C@@H]1CCCCO[C@H](CN(C)C(=O)Nc2ccc(F)cc2)[C@@H](C)CN([C@H](C)CO)C(=O)c2cc(NC(=O)C3CCCCC3)ccc2O1`, the relative growth is inactive: 0.992.

Regarding `C[C@H](CO)N1C[C@H](C)[C@@H](CN(C)CC2CC2)OCCCC[C@H](C)Oc2ccc(NC(=O)Nc3ccccc3)cc2C1=O`, the relative growth was inactive: 1.02.

Regarding `CC(C)CC#Cc1ccc2c(c1)O[C@H](CN(C)S(=O)(=O)c1ccc(F)cc1)[C@@H](C)CN([C@H](C)CO)S2(=O)=O`, the relative growth was inactive: 1.05.

As to `Cc1ccc(S(=O)(=O)N(C)C[C@@H]2Oc3ccc(NS(=O)(=O)c4ccccc4)cc3CC(=O)N([C@H](C)CO)C[C@H]2C)cc1`, the relative growth is inactive: 1.

Consider `C[C@H]1CN([C@@H](C)CO)S(=O)(=O)c2ccc(Br)cc2O[C@H]1CN(C)S(=O)(=O)c1ccccc1F`, for which the relative growth was inactive: 1.02.

Consider `C[C@H]1CN([C@@H](C)CO)C(=O)c2cc(NC(=O)CCN3CCOCC3)ccc2O[C@H]1CN(C)S(=O)(=O)c1cccs1`, for which the relative growth was inactive: 1.03.

Regarding `O=C(C[C@H]1CC[C@H]2NC[C@@H](O)COC[C@@H]2O1)NCCN1CCCCC1`, the relative growth was inactive: 0.988.

As for `Clc1ccc(C(c2ccccc2Cl)C(Cl)Cl)cc1` (centres undefined), the relative growth was inactive: 0.849.

Regarding `Cc1ccc(S[C@]2(C(=O)NC3CC3)CC(=O)N(Cc3cc(C(F)(F)F)cc(C(F)(F)F)c3)[C@@H]2c2ccc(CO)cc2)cc1`, the relative growth is inactive: 0.975.

As to `Cc1noc(C)c1S(=O)(=O)N(C)C[C@H]1Oc2ccc(NC(=O)CCC(F)(F)F)cc2CC(=O)N([C@@H](C)CO)C[C@H]1C`, the relative growth was inactive: 0.994.

For the compound `C[C@@H]1CN([C@@H](C)CO)C(=O)c2cc(Br)cnc2O[C@@H]1CN(C)Cc1ccc(C(=O)O)cc1`, the relative growth is inactive: 1.01.

For the compound `Cc1ccc(N2C[C@@H](N)CC2=O)cc1C`, the relative growth was inactive: 1.

`C[C@@H]1CCCCO[C@H](CN(C)C(=O)NC2CCCCC2)[C@@H](C)CN([C@@H](C)CO)C(=O)c2cc(NS(=O)(=O)c3cccs3)ccc2O1`: the relative growth was inactive: 1.01.

In the case of `NC[C@H]1CCS(=O)(=O)C1`, the relative growth was inactive: 1.01.

As to `C[C@H]1CN([C@@H](C)CO)C(=O)c2cc(NS(=O)(=O)c3cccs3)ccc2O[C@H]1CN(C)S(=O)(=O)c1cccs1`, the relative growth is inactive: 1.02.

With `C[C@@H](NC(=O)C[C@H]1C=C[C@@H](NC(=O)CN2CCOCC2)[C@@H](CO)O1)c1ccccc1`, the relative growth is inactive: 0.987.

Turning to `CCc1nc2ccc(C(=O)N3CCN(C(=O)c4ccco4)CC3)cn2c1N(C)C(=O)c1cccc(OC)c1`, the relative growth was inactive: 0.965.

Turning to `Cc1ccc(S(=O)(=O)Nc2cccc3c2O[C@H](CN(C)Cc2ccc(Oc4ccccc4)cc2)[C@@H](C)CN([C@@H](C)CO)C3=O)cc1`, the relative growth was inactive: 1.03.

Consider `OCCc1ccccc1`, for which the relative growth was inactive: 1.1.

As for `C[C@H](CO)N1C[C@H](C)[C@H](CN(C)C(=O)Nc2ccccc2)OCCCC[C@H](C)Oc2ccc(NC(=O)c3ccccc3)cc2C1=O`, the relative growth was inactive: 0.896.

Turning to `COc1ccc(S(=O)(=O)Nc2ccc3c(c2)[C@@H]2C[C@@H](CC(=O)NCC4CC4)O[C@H](CO)[C@@H]2O3)cc1`, the relative growth was inactive: 1.01.

Consider `C[C@@H]1CN([C@H](C)CO)C(=O)c2cc(NC(=O)CCC(F)(F)F)ccc2O[C@@H](C)CCCCO[C@@H]1CN(C)C(=O)C1CCCCC1`, for which the relative growth was inactive: 1.01.

With `C[C@@H]1CN([C@@H](C)CO)C(=O)c2cc(N(C)C)ccc2O[C@@H](C)CCCCO[C@H]1CN(C)Cc1ccc(C(=O)Nc2ccccc2N)cc1`, the relative growth was inactive: 0.999.

For `O=C(O)c1ccccc1Nc1cccc(C(F)(F)F)c1`, the relative growth was inactive: 0.887.

With `C[C@@H]1CN([C@@H](C)CO)C(=O)c2cccc(NS(=O)(=O)c3ccc(F)cc3)c2O[C@@H]1CN(C)C(=O)Nc1cccc2ccccc12`, the relative growth was inactive: 0.998.

For the compound `COc1ccc(S(=O)(=O)Nc2ccc3c(c2)C(=O)N([C@H](C)CO)C[C@H](C)[C@H](CN(C)S(=O)(=O)c2cccs2)O3)cc1`, the relative growth is inactive: 1.05.

`COc1ccc(CN(C)C[C@@H]2Oc3ccc(NC(=O)Cn4cnnn4)cc3C(=O)N([C@@H](C)CO)C[C@@H]2C)cc1`: the relative growth is inactive: 0.987.

Consider `Nc1ncnc2c1ncn2[C@H]1CC[C@@H](CO)O1`, for which the relative growth is inactive: 0.476.

As for `Cc1ccc(S(=O)(=O)Nc2ccc3c(c2)C(=O)N([C@H](C)CO)C[C@H](C)[C@H](CN(C)Cc2ccc(Cl)c(Cl)c2)O3)cc1`, the relative growth was inactive: 1.

For `CNC[C@@H]1OCCCC[C@@H](C)Oc2ccc(NC(=O)c3ccncc3)cc2C(=O)N([C@H](C)CO)C[C@@H]1C`, the relative growth is inactive: 0.994.

`COc1ccc(S(=O)(=O)Nc2ccc3c(c2)C(=O)N([C@@H](C)CO)C[C@@H](C)[C@H](CN(C)Cc2ccncc2)O3)cc1`: the relative growth was inactive: 0.982.

Take `CCn1c(N)c(C(N)=O)sc1=S`: the relative growth is inactive: 1.02.

Consider `C[C@H](CO)N1C[C@H](C)[C@@H](CN(C)S(C)(=O)=O)Oc2c(NC(=O)Nc3ccc(F)cc3)cccc2C1=O`, for which the relative growth was inactive: 0.994.
